Data reported in PubChem BioAssay AID686979 (National Center for Advancing Translational Sciences (NCATS), 2013).
About 50,000 (12%) of roughly 420,000 compounds were called active. Inconclusive means that the source gave no clear call. Such entries were picked first, then a sample of the others. The call rests on the fitted dose curve; in most records, active means well fitted inhibition curve with a large enough effect; inconclusive means small, poorly fitted or top-dose-only effect; inactive means flat fitted curve, though single readings scatter. No potency is given beside an inconclusive call; the fits are too rough.

Test: qHTS for Inhibitors of human tyrosyl-DNA phosphodiesterase 1 (TDP1): qHTS in cells in presence of CPT; further: nearly all actives have a fitted effect of over 55% in size
Details: chicken DT40 Tdp1-/-;hTDP1 cells + 20 nM CPT, ATP luminescence, 48 h; activity change, negative = growth inhibition: at 46.2 µM (top of the series) unless noted
In short: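 Chicken DT40 Tdp1-/- cells stably complemented with human TDP1 were seeded at 400 cells/well in medium containing 20 nM camptothecin, exposed to pin-transferred compounds, and grown at 37 °C for at least 48 hr. Viability was read as ATP luminescence.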
On the % scale 0 is the no-effect control and ±100 the full control effect; potency means the concentration at half of the fitted maximal effect; tags describe the fitted curve by direction and shape.

With `Cc1nn(C)c(C)c1C1Nc2ccccc2C(=O)N1O` (configuration not stated) as the molecule, how does the Potency read?
The Potency was “inactive”.

For `C[C@H](NC(=O)[C@@H]1CCCN1C(=O)[C@@H]1CCCN1C(=O)OC(C)(C)C)c1ccccc1`, which Potency is on record?
Its Potency is inconclusive [inhibitor, single point].

For `COc1ccc(NC(=O)C2(C)CCN2Cc2ccc(OC(C)C)cc2)cc1OC` (configuration not stated), which Potency is on record?
Its Potency is inconclusive [inhibitor, single point].

Which Potency does the source give for `CC(=O)N1CCC2(CCCN(Cc3ccc(C#N)cc3)C2)CC1` here?
The Potency was “inactive”.

With `CSCC[C@H](NC(=O)C(C)(C)Oc1ccc(Cl)cc1)c1nc2ccccc2[nH]1` as the molecule, how does the Potency read?
Its Potency is inconclusive [inhibitor, single point].

Which Potency does the source give for `O=C1C(Cc2ccc(Br)cc2)SC(=Nc2ccccc2)N1c1ccccc1` (configuration not stated) here?
Its Potency is “inactive”.

Which Potency does the source give for `CC(C)C(NC(=O)CC12CC3CC(CC(C3)C1)C2)C(=O)O` (configuration not stated) here?
The Potency was “inactive”.

Which Potency does the source give for `O=C(CSc1nnc(-c2ccccc2F)o1)N1CCc2ccccc21` here?
Its Potency is inconclusive [inhibitor, single point].

For `C=CCNC(=O)/C(C#N)=C/c1cn(-c2ccccc2)nc1-c1cccs1`, which Potency is on record?
Its Potency is inconclusive [inhibitor, single point].

With `COC(=O)c1cc(C(=O)N(Cc2ccccc2)c2ccccn2)cc([N+](=O)[O-])c1` as the molecule, how does the Potency read?
The Potency was “inactive”.

With `O=C(Nc1cccc2[nH]ncc12)c1ccc(F)cc1` as the molecule, how does the Potency read?
The Potency was inconclusive [inhibitor, partial curve].

For `Cc1ccc(CNC(=O)CNS(=O)(=O)c2ccc3c(c2)C(C)(C)C(=O)N3C)cc1`, which Potency is on record?
The Potency was “inactive”.

With `CN(C)c1ccc(N=C/C=C2/N(C)c3ccccc3C2(C)C)cc1` as the molecule, how does the Potency read?
The Potency was active: 7.31 µM.

Which Potency does the source give for `O=C(Nc1cccc(C(=O)N2CCCCC2)c1)c1ccc(Cl)cc1` here?
The Potency was inconclusive [inhibitor, single point].

Which Potency does the source give for `COC(=O)Cc1nc(Nc2ccccc2)sc1C` here?
The Potency was “inactive”.

With `Cc1ccc(C(=O)Nc2cccc(N3C(=O)C4CCC(C)CC4C3=O)c2)cc1` (configuration not stated) as the molecule, how does the Potency read?
The Potency was “inactive”.

For `CCNC(=O)C1(C)CCCN(C(=O)c2ccc3sccc3c2)C1` (configuration not stated), which Potency is on record?
The Potency was “inactive”.

Which Potency does the source give for `CCN(CC)S(=O)(=O)c1ccc(C)c(NC(=O)CNCc2ccccc2OC)c1` here?
Its Potency is inconclusive [inhibitor, single point].

With `O=C(Cc1ccc(Cl)cc1)NCC(c1cccs1)S(=O)(=O)c1ccc(Cl)cc1` (configuration not stated) as the molecule, how does the Potency read?
The Potency was inconclusive [inhibitor, single point].

Which Potency does the source give for `Cc1ccc(NC(=O)Cn2nc(C(F)(F)F)c3c2CCC3)cc1` here?
Its Potency is inconclusive [inhibitor, partial curve, poor fit].

With `CCOc1cc(C=O)cc(Br)c1OCC(N)=O` as the molecule, how does the Potency read?
Its Potency is active: 5.8 µM.

With `C[C@H]1CN([C@@H](C)CO)C(=O)c2cc(/C=C/c3ccccc3)cnc2O[C@H]1CN(C)C(=O)c1cccc(F)c1` as the molecule, how does the Potency read?
Its Potency is inconclusive [inhibitor, single point].

For `O[C@H]1C[C@H](c2ccc(Cl)cc2)N(Cc2cccs2)C[C@@H]1n1cc(C2CC2)nn1`, which Potency is on record?
Its Potency is inconclusive [inhibitor, single point].

Which Potency does the source give for `Cn1cc(-c2cccc(C(F)(F)F)c2)cc(C#N)c1=O` here?
Its Potency is “inactive”.

With `Cn1nc(C(=O)Nc2ccc(S(=O)(=O)N3CCOCC3)cc2)c2ccccc2c1=O` as the molecule, how does the Potency read?
The Potency was inconclusive [inhibitor, single point].

For `CN(Cc1ccccc1)C(=O)C1CCN(Cc2cc3ccccc3n2Cc2ccccc2)CC1`, which Potency is on record?
The Potency was inconclusive [inhibitor, single point].

With `COc1ccc(C(=O)N/N=C/c2ccc(OC)c(CN3CCc4cc(OC)c(OC)cc4C3C)c2)cc1` (configuration not stated) as the molecule, how does the Potency read?
Its Potency is inconclusive [inhibitor, single point].

Which Potency does the source give for `COc1ccc(O)c(/C=N/NC(=O)CCC(=O)Nc2ccc(C)cc2)c1` here?
Its Potency is inconclusive [inhibitor, single point].

With `O=[N+]([O-])c1ccc(Nc2ccc(F)cc2)nc1` as the molecule, how does the activity change, negative = growth inhibition read?
Its activity change, negative = growth inhibition is inconclusive: -32.2% [inhibitor].

For `C#Cc1cccc(Nc2ncnc3cc(OCCOC)c(OCCOC)cc23)c1`, which Potency is on record?
Its Potency is inconclusive [inhibitor, single point].

For `COc1ccccc1CNc1nc(-c2ccoc2)nc2ccccc12`, which Potency is on record?
The Potency was active: 14.6 µM.

For `COc1cccc(CN2CC(C(=O)NCCc3cn4cccnc4n3)CCC2=O)c1` (configuration not stated), which Potency is on record?
The Potency was “inactive”.

For `C=CCn1c(SCCC)nc2sc3c(c2c1=O)CCc1ccccc1-3`, which Potency is on record?
Its Potency is inconclusive [inhibitor, full curve, poor fit].

Which Potency does the source give for `Cc1cccc(NC(=O)c2c(NC(=O)c3ccco3)sc3c2CCC(C(C)(C)C)C3)c1` (configuration not stated) here?
Its Potency is “inactive”.

With `Cc1c2ccccc2cc(Cc2ccccc2)[n+]1C` as the molecule, how does the Potency read?
Its Potency is active: 23.1 µM.

For `Cc1ccc(-n2c3c(cc(-c4nc(-c5ccc(Cl)cc5)cs4)c2=O)C(=O)CC(C)(C)C3)cc1`, which Potency is on record?
Its Potency is “inactive”.

For `O=C(Cn1ccc2ccccc2c1=O)NCCC(=O)N1CCN(c2cccc(C(F)(F)F)c2)CC1`, which Potency is on record?
The Potency was active: 20.6 µM.

Which Potency does the source give for `CSc1ccccc1NC(=O)CN(C)C(C)C(=O)Nc1ccc(C#N)cc1` (configuration not stated) here?
Its Potency is inconclusive [inhibitor, single point].

Which Potency does the source give for `O=C(c1sc2cccc(Cl)c2c1Cl)N1CCN(CCc2ccccn2)CC1` here?
The Potency was inconclusive [inhibitor, single point].

For `O=C(NC(c1ccccc1)c1ccsc1)C1CCN(Cc2ccc(Cl)c(Cl)c2)CC1` (configuration not stated), which Potency is on record?
The Potency was inconclusive [inhibitor, single point].

Which Potency does the source give for `CCOC(=O)CC1C(=O)NCCN1c1nc2ccc(C)cn2c(=O)c1/C=C1\SC(=S)N(CC(C)C)C1=O` (configuration not stated) here?
Its Potency is inconclusive [inhibitor, single point].

With `CCOC(=O)c1c(C)[nH]c(CCC(=O)Nc2cc(C)cc(C)c2)c1C` as the molecule, how does the Potency read?
The Potency was inconclusive [inhibitor, single point].

With `CCN1CCN(C(c2cccs2)C(C)NC(=O)c2cccnc2)CC1` (configuration not stated) as the molecule, how does the Potency read?
The Potency was “inactive”.

Which Potency does the source give for `O=C(CCNc1ccc(Cc2ccncc2)cc1)c1ccc([N+](=O)[O-])cc1` here?
Its Potency is active: 23.1 µM.

For `COc1ccc(C(=O)N2CCC3(CCCN(c4ccncc4)C3)CC2)cc1`, which Potency is on record?
Its Potency is inconclusive [inhibitor, partial curve, poor fit].

For `COc1cc(C(=O)NC(c2ccccc2)c2ccccc2)cc(OC)c1C`, which Potency is on record?
Its Potency is “inactive”.

Which Potency does the source give for `CCCc1nc(SCC(=O)Nc2ccc(N3CCOCC3)cc2)c2ccccc2n1` here?
Its Potency is inconclusive [inhibitor, single point].

Which Potency does the source give for `Cc1cc(C)c(C(=O)OCCNC(=O)c2cccnc2)cc1C` here?
Its Potency is inconclusive [inhibitor, single point].

For `COc1ccc(C2=NN(C(=O)c3cccs3)C(c3ccccc3OC)C2)cc1OC` (configuration not stated), which Potency is on record?
Its Potency is inconclusive [inhibitor, single point].

Which Potency does the source give for `O=C(Cc1ccc(-c2ccccc2)cc1)NNC(=S)NCc1ccco1` here?
Its Potency is inconclusive [inhibitor, single point].

Which Potency does the source give for `COc1ccc(CC(=O)OCC(=O)N2CCCc3ccccc32)cc1OC` here?
Its Potency is “inactive”.

With `CN(Cc1cn(-c2ccccc2)nc1-c1cc2ccccc2o1)C(=O)CCC(=O)O` as the molecule, how does the Potency read?
The Potency was inconclusive [inhibitor, single point].

For `O=C(Nc1c(C(=O)Nc2cccc(F)c2)oc2ccccc12)c1ccc2c(c1)OCO2`, which Potency is on record?
The Potency was inconclusive [inhibitor, single point].

For `COc1cc([N+](=O)[O-])ccc1NC(=O)CSc1nncn1-c1cccnc1`, which Potency is on record?
Its Potency is inconclusive [inhibitor, full curve, poor fit].

With `Cc1ccc(NS(=O)(=O)c2ccc(C(=O)N3CCCCCCC3)cc2)cc1` as the molecule, how does the Potency read?
The Potency was active: 23.1 µM.

With `O=C(NC(=S)NCC1CCCO1)c1ccc(Cl)cc1` (configuration not stated) as the molecule, how does the Potency read?
Its Potency is inconclusive [inhibitor, single point].

Which Potency does the source give for `O=C(CN1CCN(c2ccc(O)cc2)CC1)NC(c1ccccc1)c1ccccc1` here?
Its Potency is “inactive”.

Which Potency does the source give for `COc1ccccc1CCc1nnc(CCC(=O)NCCC2CCCCO2)o1` (configuration not stated) here?
Its Potency is “inactive”.

For `O=[N+]([O-])c1ccc(S(=O)(=O)Nc2nc3ccccc3nc2Nc2ccccc2)cc1`, which Potency is on record?
The Potency was active: 3.26 µM.

For `Cc1ccc(C)c(S(=O)(=O)N2CCN(C(=O)CSc3ccccc3)CC2)c1`, which Potency is on record?
The Potency was “inactive”.

With `COc1cnn(-c2ccccc2)c(=O)c1SCc1ccc(Cl)c(Cl)c1` as the molecule, how does the Potency read?
The Potency was “inactive”.

For `Oc1ccccc1C(=S)N1CCN(C(=S)c2ccccc2O)CC1`, which Potency is on record?
Its Potency is “inactive”.

Which Potency does the source give for `Cc1onc(-c2c(F)cccc2Cl)c1C(=O)NC1CCCCCC1` here?
Its Potency is inconclusive [inhibitor, partial curve].

For `c1ccc(-c2[nH]ncc2CN2CCc3ccccc3C2)cc1`, which Potency is on record?
Its Potency is “inactive”.

With `CCN(CC)CCCNC(=O)c1cn(C)c2ccc(S(=O)(=O)N3CCOCC3)cc2c1=O` as the molecule, how does the Potency read?
Its Potency is “inactive”.

With `O=C(NCCc1ccccc1)c1ccc(CSc2nc3ccncc3n2Cc2ccccc2)cc1` as the molecule, how does the Potency read?
The Potency was active: 4.61 µM.

Which Potency does the source give for `COC(=O)c1c(C)c2c(C)cc3ccccn3c-2c1C(=O)OC` here?
The Potency was inconclusive [inhibitor, partial curve].

Which Potency does the source give for `CCc1ccc(CN(C)CC(=O)Nc2ccccc2[N+](=O)[O-])cc1` here?
Its Potency is inconclusive [inhibitor, single point].

With `COc1ccc(Br)cc1CNC(=O)CN1C(=O)CSc2ccc(S(=O)(=O)N3CCOCC3)cc21` as the molecule, how does the Potency read?
The Potency was inconclusive [inhibitor, single point].

With `CC1Sc2ccc(S(=O)(=O)N3CCC(C(=O)NCc4ccccc4)CC3)cc2NC1=O` (configuration not stated) as the molecule, how does the Potency read?
The Potency was inconclusive [inhibitor, partial curve, poor fit].

Which Potency does the source give for `CCOc1ccc(N(CC(=O)Nc2ccc(C)c(Cl)c2)S(C)(=O)=O)cc1` here?
Its Potency is inconclusive [inhibitor, single point].

For `Cn1c(CNc2nc(-c3ccccc3)cs2)nnc1SCC(=O)c1ccccc1`, which Potency is on record?
The Potency was inconclusive [inhibitor, single point].
